Our source for the B-score values is the supplement of paper PMC11283458.

Structures can show the parent of a compound that is named as a salt. The list shows a part of the results. Repeats are few or missing, and single values can be far off.

The subject of test [1] is Mef2d microexon dual Nano/Firefly luciferase splicing reporter in Neuro-2a cells. Nature of the test: B-score of Firefly/Nano luminescence ratio, V1 Mef2d microexon reporter (B-score (plate-normalised)); higher = more Mef2d microexon inclusion. Conditions: 24 h.
The test system is the same in test [2]. Put plainly: B-score of Nano/Firefly luminescence ratio, V2 Mef2d microexon reporter (B-score (plate-normalised)); higher = more Mef2d microexon inclusion. Conditions: 24 h.
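For B-score of Nano/Firefly luminescence ratio, V2 Mef2d microexon reporter in this document: compounds at 4 µM (PKI library 0.5 µM) on Dox-inducible N2A Flp-In cells with PEST-tagged luciferases, 384-well plates, B-score from per-plate median-polish residual over median absolute residual.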

As to `COc1ccc2c(COC(=O)c3cccc(OCc4c(C)noc4C)c3)cc(=O)oc2c1` (4 µM), the B-score in test [1] was -6.37; in test [2] it was -10.5.
`NC(=NOC(=O)N1CCOCC1)c1ccc(Cl)cc1` (4 µM): the B-score in test [1] is 6.65; in test [2], 2.4.
With `COc1ccccc1C1(O)CCN(CCCn2c3ccccc3c3ccccc32)CC1` [NNC 05-2090 hydrochloride] (4 µM), the B-score in test [1] worked out at 2.91; in test [2] it was 5.17.
Regarding `O=C(NCCNc1nccc(C(F)(F)F)n1)Nc1ccccc1Cl` (4 µM), the B-score was -11.5 in test [1] and -20.6 in test [2].
The corresponding values for `CCOC(=O)/C=C(\C)Sc1cc(=O)oc2ccccc12` (4 µM) are -1.41 and -7.01.
With `CC[C@]1(O)C[C@H]2CN(CCc3c([nH]c4ccccc34)[C@@](C(=O)OC)(c3cc4c(cc3OC)N(C=O)[C@H]3[C@@](O)(C(=O)OC)[C@H](OC(C)=O)[C@]5(CC)C=CCN6CC[C@]43[C@@H]65)C2)C1` [Vincristine sulfate] (4 µM), the B-score in test [1] is -1.86; in test [2] it was -6.16.
The corresponding values for `Cc1cccc(C)c1N=C=Nc1c(C)cccc1C` (4 µM) are -3.13 and -7.89.
The matching figures for `O=C(NCCNc1ccc(C(F)(F)F)cn1)Nc1ccccc1Cl` (4 µM): -21.8 and -28.
As for `COC(OC)C(C)=NNC(N)=S` (4 µM), the results for the B-score in test [1] and in test [2] were 12.9 and 30.3, respectively.
The matching figures for `CS(=O)(=O)c1ccc(C(F)(F)F)cc1[N+](=O)[O-]` (4 µM): -1.9 and -5.34.
Take `CC(=Nc1ccccc1N)c1c(C)cc(=O)n(O)c1O` (4 µM): the B-score was determined as 13.5 in test [1] and 1.98 in test [2].
The matching figures for `C(=C\c1ccccc1)/C(=N/Nc1ccccc1)c1ccccc1` (4 µM): 0.365 and 5.71.
Turning to `COc1ccc2nc(-c3ccccc3)cc(NCCN(C)C)c2c1` (4 µM), the B-score in test [1] amounted to 2.19; in test [2], 3.07.
